Assay results taken from the supplement of paper PMC11417369.
The list shows a part of the results.

These sequences were tested on PF3D7_0420300 AP2 domain 1 (GST-tagged) (assay: gcPBM binding intensity (ln(normalized median fluorescence intensity)); higher = stronger DNA binding).
How it was run: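 GST-tagged P. falciparum DNA-binding domains produced in E. coli were incubated for 1 h on an Agilent 4 × 180k array of primer-extended double-stranded 36-bp intergenic genomic probes with negative controls. Binding intensity is the highest Masliner-normalised natural-log median intensity across replicate spots of either probe orientation, with bound protein detected by Alexa488 anti-GST antibody at 488 nm.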

Row | Sequence | gcPBM binding intensity (ln)
1 | TTGCCCATTTAATTAACACACAAATGTTTATATTCT [CACACA_site6488] | 9.57
2 | TGTATGATAACTATAGTGCATTTGGTAATTTTTCCA | 9.25
3 | TTCACATACAGAAACACACACATATATATAAATTAA [CACACA_site3705] | 9.78
4 | TATTTCATGATACAATGTACATGTATATATGATACC [XGTACX_site5057] | 9.18
5 | AATAATATATATTACACACGCATCGTTCATTTATTT [CACACA_site2391] | 9.74
6 | CTAGCAAATACATACACACACACACCGATACAGATA [CACACA_site5853] | 10.2
7 | ATATATACATATATTACACACTTCTTATTCTAAGAA [CACACA_site3022] | 9.22
8 | TATAATATAAGGATCACACACAAACACCCATATATA [CACACA_site4468] | 9.76
9 | TCCATAAAAATGGATACACACACATAATATATATAT [CACACA_site9207] | 9.82
10 | CATACATACATACATACACACATACCTATATTTATA [CACACA_site6769] | 9.79
11 | TATATAAAAAAACAAAGTACATGTTCTTAATCATTT [XGTACX_site8446] | 9.15
12 | AAATGAACAAGTGGCACACACACATCATAACTAATT [CACACA_site5730] | 9.92
13 | CACGCGAACATACATACACACACATATATATATATG [CACACA_site7951] | 9.85
14 | CAAAATATATATACCACACACACATACCTCTATTTG [CACACA_site1853] | 9.93
15 | ATATATTTTTTCTTAACACACATATATAAAATAAAA [CACACA_site3500] | 9.24
16 | TATATATATATATACACACACACACCGATATATATA [CACACA_site8813] | 10.2
17 | AAATATAATATATGCACACATACATACAGATATATA [CACACA_site4235] | 9.5
18 | ATAAATATAGGACACACACACATATTATATATATAT [CACACA_site5658] | 10.1
19 | ATAATATAAATATGCACACAAATTATTACCCAAAAA [CACACA_site2524] | 9.55
20 | GTTATATTCCTACAGAGTACATAAAAATGCACATCA [XGTACX_site1948] | 9.2
21 | TATTCGAACAAAAATACATGCACATATGCATAATAA [TGCATGCA_site171] | 9.15
22 | TTTTCCAGTAAATATTTTTTTATAATATTTATATAT [CACACA_negctrl_site387] | 9.11
23 | AAATAAAATAAAATACGTACCTATTGTGCGTATTAA [XGTACX_site2912] | 9.06

Row | Sequence | gcPBM binding intensity (ln)
24 | TAATAAATGTTATTAGTGCATAATAGATAATATATT | 9.24
25 | AATAATTTCCAAAAATGTACATATATTTACATATAT [XGTACX_site1790] | 9.4
26 | ATTTTAACTCCCCTTAATCTATTGTATATATATATA [CACACA_negctrl_site208] | 9.39
27 | AGCCACTTAAAATACACACACACCAAAAAAAAAAAA [CACACA_site5497] | 9.81
28 | TATTTTATTTATTGAAGTACATTATACAAAAATAAA [XGTACX_site4824] | 8.8
29 | GTTTTCTAGTGGGGGTGTACATATTTATATTTAATA [XGTACX_site8378] | 10.2
30 | ATATATATATAATAAGTGCAAAAAAAAGAAAAAAAT | 9.74
31 | AGCAAAAAAAAAAAAAAAAAAAAAATAATAAAAAAT [TGCATGCA_negctrl_site202] | 8.83
32 | CATATATTAATATGTACACACATTAATAAAAAAAAA [CACACA_site7504] | 9.4
33 | TTTTTTTTTTTTGAGGTGCATATATCAGATCAATAT | 8.94
34 | AGTATTCATAAAAATACACACATGGAAAAATAAAAT [CACACA_site1454] | 9.72
35 | TAAGAAATTGAGCGCACACATACATCTGTGGGATGG [CACACA_site1548] | 9.46
36 | ATTGTGGATATTCTTACACACAAATTTATTTATAAA [CACACA_site7267] | 9.28
37 | TTTTTTTCTTCTTTTCTCTTAAAAATATTGAATATT [CACACA_negctrl_site1762] | 9.12
38 | ATGTAAATATTTTGTATGCACTTTGATGCATCTTTT | 9.34
39 | AAAAAAAAAAAAAAAAAAAAAAAAAAAAAAAAAAAG [CACACA_negctrl_site292] | 9.3
40 | TCAAGAGTTATATAAACACACATACATACAGACATA [CACACA_site6998] | 9.6
41 | GGAAAAAGAAATTAATGTACATGTGGATGTATGAGG [XGTACX_site5468] | 9.36
42 | AAAATATTTAAGCATTGTACATATTTTTACAAATAC [XGTACX_site5349] | 9.1
43 | AAAATTCATCCAACAAGTACATAAATATAATATTAT [XGTACX_site4596] | 9.35
44 | AAGAACAGATAAAATCGTACGTGAAACATGAACTTG [XGTACX_site7793] | 9.42
45 | TCTGAAATTTTAGGGGTGCCTGGGACTAAAGAAACG [GTGCAC_site9785] | 9.19
46 | TAGAAACCATAAAAATGTACTTAAAAATAGACAATT [XGTACX_site5007] | 9.37

Row | Sequence | gcPBM binding intensity (ln)
47 | ATAAATTCATTATATTGTACAAACAAATGAAAAAAA [XGTACX_site8304] | 9.09
48 | TTTAATTCCCATATATGTACACAATTTCTTCTATAA [XGTACX_site1465] | 9.25
49 | AGACTTTTTATGAGCACACACATATATTATGGAGTA [CACACA_site1040] | 9.41
50 | ATACATAAATATTATTGTACATATATAATATTAATA [XGTACX_site3514] | 9.08
51 | ATTTTTTTTTTTTTATGTACATATTAAAAAAAATAT [XGTACX_site1829] | 9.03
52 | GGTATTACTTTTAGCTGTACTTATTTAAAAGTCAAA [XGTACX_site530] | 9.13
53 | ATTTTTACTTTTTATGCATGCTATATTTTCAACCAT [TGCATGCA_site871] | 9.5
54 | ATTAAGGAAAAATTATGTACACAAAAACATATAACA [XGTACX_site2901] | 9.45
55 | TATACATGTTCAATTTGTACATATATAAATATATAT [XGTACX_site3554] | 9.12
56 | CTACACAAGCATTAAACACACAAAAGGGATACTTTG [CACACA_site1083] | 9.68
57 | ATTCAAAAAAATAAAATAAACATAAATAAACATAAA [TGCATGCA_negctrl_site390] | 9.24
58 | ATTTCCCACTTGTGTGTGCGCATGTGTATATATTTA [GTGCAC_site9949] | 9.89
59 | TACATATATATAATATGTACTTATAATATGTATTTA [XGTACX_site2162] | 9.13
60 | TTATTTGTTTGTTGGATGCTTTTTTTTTTTTTTTTT [CACACA_negctrl_site1697] | 9.5
61 | AAAAGTGATAATAAGAGTACATAAAAAATTTATTAT [XGTACX_site8037] | 9.34
62 | TATTCTATACTATATTGTACTATAATATAATATACT [XGTACX_site797] | 9.27
63 | AAATAATTTATAAATAAATACATTGTTACTTTTTCT [GTGCAC_negctrl_site639] | 9.16
64 | TATGTGTATTTATTTGCATGTTGGTTGTATTTTTTC [TGCATGCA_site479] | 9.92
65 | TCTTCATATGTTTACTGTACGAGAAAAAAAAAAAAA [XGTACX_site6418] | 8.88
66 | TAATAAAATAAAAATTGTACATTTTATATTTATCAA [XGTACX_site5134] | 8.91
67 | AATGAAAAAAAAAAAAAAAAGAAGAAGCAAATGGTA [TGCATGCA_negctrl_site335] | 9.58
68 | AGATTATTTGGACATGCATGTAAAAAAATACGTATA [TGCATGCA_site972] | 9.23
69 | ATAAATAATTATATATGTACACATTATGAATGGATA [XGTACX_site8336] | 9.37

Row | Sequence | gcPBM binding intensity (ln)
70 | TAAAAAAATTCATGCACACGAAATAAAAAGCACCTT [CACACA_site4667] | 9.55
71 | TTTTCATTTTTTCGTTGTACATAAATAATATATATT [XGTACX_site856] | 9.4
72 | AATACATACATACATACACACATATATATATATTAT [CACACA_site3575] | 9.82
73 | AAACATAAATTTTATTGTACATTATATAGAATTTTC [XGTACX_site576] | 8.95
74 | TTTTTTAAAAGATAATATTTTATTAATGTATTCTCA [GTGCAC_negctrl_site598] | 8.9
75 | TTTTACTATACTTATGCACACAAGATATATACATAT [CACACA_site2968] | 9.42
76 | ACTAATTACTATAAAACACACATATATTTATTTATA [CACACA_site7263] | 9.42
77 | CACATGTATTTATAGGTGCGTAAAAACACTTTATAT [GTGCAC_site9501] | 9.26
78 | TTATAGAAACATTGGTGTACGATATTTACTTCTTTC [XGTACX_site7314] | 9.15
79 | GGAATAGTCGGGTGCATACACACCTTAAATATAATA [CACACA_site1081] | 9.21
80 | AATCATATTAGTATGGTGCAATATATATATAAATAT [GTGCAC_site9800] | 9.31
81 | AAAGAAAATTCAATAGTGCATAAAAATATATATGTT [GTGCAC_site9680] | 9.35
82 | ATCATGAAATATATTTGTACACATAATAATATAATA [XGTACX_site8798] | 9.29
83 | ATTTGGCAGAAACACACACACACACCCACCCACATA [CACACA_site589] | 10.4
84 | TTTTTTTTTATAAATACACACGTACGGGTGCATAAC [CACACA_site8444] | 9.03
85 | TATTAAAAGGTGAGTACACACATATATGTGTATATA [CACACA_site7070] | 9.64
86 | ATATATATATATATATGTACACAGGACAATAATCCT [XGTACX_site6383] | 9.33
87 | TATCATCTTAATATCGTGCACATTTATAGAACGAAA [GTGCAC_site9992] | 8.98
88 | TTTTACTATACTTATGCACACAAGATAAATACATAT [CACACA_site5619] | 9.37
89 | ATACCTCAAATTGATACACACAAAAAAAGTAAATTA [CACACA_site3134] | 9.63
